# In the supplement of paper PMC4604168 (melanoma cell lines):
# The list shows a part of the results. Many values rest on one well or one pass, so single values are uncertain.
# How the values were obtained:
# Test in all cases: cell count relative to DMSO control; melanoma cells; higher = more viable cells
# 501Mel = conditions: library dose: standard library concentration; 72 h
# A101D = conditions: library dose: standard library concentration; 72 h
# A2058 = conditions: library dose: standard library concentration; 72 h
# A375 = conditions: library dose: standard library concentration; 72 h
# MZ2-MEL = conditions: library dose: low library concentration; 72 h
# MeWo = conditions: library dose: low library concentration; 72 h
# RPMI7951 = conditions: library dose: low library concentration; 72 h
# RVH-421 = conditions: library dose: low library concentration; 72 h
# SkMel28 = conditions: library dose: low library concentration; 72 h
# SkMel30 = conditions: library dose: low library concentration; 72 h
# UACC62 = conditions: library dose: low library concentration; 72 h
# WM115 = conditions: library dose: low library concentration; 72 h
# WM1716 = conditions: library dose: low library concentration; 72 h
# WM1745 = conditions: library dose: low library concentration; 72 h
# WM3526 = conditions: library dose: low library concentration; 72 h
# WM3619 = conditions: library dose: low library concentration; 72 h
# WM451Lu = conditions: library dose: low library concentration; 72 h
# SkMel2 = conditions: library dose: low library concentration; 72 h
# SkMel5 = conditions: library dose: low library concentration; 72 h
# UACC257 = conditions: library dose: low library concentration; 72 h
smiles,measurement,setting,value
"C[C@@H]1CCN(C(=O)CC#N)C[C@@H]1N(C)c1ncnc2[nH]ccc12 + CC(C)CCN1c2nc(Nc3cc(F)c(O)c(F)c3)ncc2N(C)C(=O)C1C [BID1870] (first compound 5 µM, partner dose 1 µM)",cell count,501Mel,73.3%
same,cell count,A101D,77.3%
same,cell count,A2058,93.8%
same,cell count,A375,97.5%
"O=c1[nH]nc(Sc2ncc([N+](=O)[O-])s2)n1-c1ccc2c(c1)OCCO2 + Cc1cc(Nc2cc(N3CCN(C)CC3)nc(/C=C/c3ccccc3)n2)n[nH]1 [ENMD2076] (first compound 0.2 µM, partner dose 0.04 µM)",cell count,MZ2-MEL,103%
same,cell count,MeWo,97.4%
same,cell count,RPMI7951,89.4%
same,cell count,RVH-421,96.2%
same,cell count,SkMel28,105%
same,cell count,SkMel30,98.1%
same,cell count,UACC62,122%
same,cell count,WM115,93.3%
same,cell count,WM1716,106%
same,cell count,WM1745,98.7%
same,cell count,WM3526,119%
same,cell count,WM3619,129%
same,cell count,WM451Lu,105%
"O=c1[nH]nc(Sc2ncc([N+](=O)[O-])s2)n1-c1ccc2c(c1)OCCO2 + OCc1c[nH]c2ccccc12 [Indole-3-carbinol] (first compound 0.2 µM, partner dose 0.8 µM)",cell count,MeWo,94.3%
same,cell count,RPMI7951,97.8%
same,cell count,RVH-421,94.9%
same,cell count,SkMel28,103%
same,cell count,SkMel30,93%
same,cell count,UACC62,105%
same,cell count,WM115,88.7%
same,cell count,WM1716,105%
same,cell count,WM1745,92.4%
same,cell count,WM3526,96.6%
same,cell count,WM3619,112%
same,cell count,WM451Lu,85.9%
"CC1(C)NC(=O)N(c2ccc([N+](=O)[O-])c(C(F)(F)F)c2)C1=O [nilutamide] + CO[C@@H]1[C@H](N(C)C(=O)c2ccccc2)C[C@H]2O[C@]1(C)n1c3ccccc3c3c4c(c5c6ccccc6n2c5c31)C(=O)NC4 [Midostaurin] (first compound 1 µM, partner dose 0.08 µM)",cell count,MeWo,97.2%
same,cell count,RPMI7951,114%
same,cell count,RVH-421,108%
same,cell count,SkMel28,94.1%
same,cell count,SkMel2,102%
same,cell count,SkMel30,106%
same,cell count,SkMel5,92.3%
same,cell count,UACC257,85.5%
same,cell count,UACC62,112%
same,cell count,WM115,81.7%
same,cell count,WM1716,81.7%
same,cell count,WM1745,12.1%
same,cell count,WM3526,103%
same,cell count,WM3619,105%
same,cell count,WM451Lu,109%
"O=C(Nc1cccc(Cl)c1)Nc1ncc(CCNc2ncnc3ccsc23)s1 + CN(NC(=O)CC(=O)NN(C)C(=S)c1ccccc1)C(=S)c1ccccc1 [STA4783] (first compound 0.0008 µM, partner dose 0.006 µM)",cell count,MeWo,96.9%
same,cell count,RPMI7951,95.3%
same,cell count,RVH-421,96.8%
same,cell count,SkMel28,80.1%
same,cell count,SkMel30,101%
same,cell count,SkMel5,78.3%
same,cell count,UACC257,85.1%
same,cell count,UACC62,90%
same,cell count,WM115,55.7%
same,cell count,WM1716,69.4%
same,cell count,WM1745,52%
same,cell count,WM3526,90.9%
same,cell count,WM3619,92.3%
same,cell count,WM451Lu,95.2%
"O=C(O)c1ccc(-c2c[nH]c3ncc(-c4ccccc4)cc23)cc1C1CCCC1 + CCCCCCCCCCCC1=C(O)C(=O)C=C(O)C1=O [Embelin] (first compound 0.8 µM, partner dose 6 µM)",cell count,501Mel,98.6%
same,cell count,A101D,103%
same,cell count,A2058,95.4%
same,cell count,A375,89.7%
"O=c1[nH]nc(Sc2ncc([N+](=O)[O-])s2)n1-c1ccc2c(c1)OCCO2 + CS(=O)(=O)c1ccc(C(=O)Nc2ccc(Cl)c(-c3ccccn3)c2)c(Cl)c1 [vismodegib] (first compound 0.2 µM, partner dose 1 µM)",cell count,MeWo,105%
same,cell count,RPMI7951,97%
same,cell count,RVH-421,101%
same,cell count,SkMel28,109%
same,cell count,SkMel30,97.9%
same,cell count,UACC62,99.3%
same,cell count,WM115,104%
same,cell count,WM1716,110%
same,cell count,WM1745,114%
same,cell count,WM3526,95.1%
same,cell count,WM3619,127%
same,cell count,WM451Lu,104%
"COc1cc(Nc2ncc(F)c(Nc3ccc4c(n3)NC(=O)C(C)(C)O4)n2)cc(OC)c1OC [Tamatinib] + CCc1ccc(CCOc2ccc(CC3SC(=O)NC3=O)cc2)nc1 [pioglitazone] (first compound 2 µM, partner dose 10 µM)",cell count,501Mel,73.2%
same,cell count,A101D,44.3%
same,cell count,A2058,80%
same,cell count,A375,102%
"O=c1[nH]nc(Sc2ncc([N+](=O)[O-])s2)n1-c1ccc2c(c1)OCCO2 + COc1ccc2c(c1)CCC1C2CCC2(C)C(NCCCCCCN3C(=O)C=CC3=O)CCC12 [U73122] (first compound 1 µM, partner dose 2 µM)",cell count,501Mel,114%
same,cell count,A101D,93.2%
same,cell count,A2058,79%
same,cell count,A375,74.5%
"O=c1[nH]nc(Sc2ncc([N+](=O)[O-])s2)n1-c1ccc2c(c1)OCCO2 + N#Cc1c(O)c2c(-c3ccc(-c4ccccc4O)cc3)csc2[nH]c1=O [A769662] (first compound 1 µM, partner dose 10 µM)",cell count,501Mel,85.6%
same,cell count,A101D,118%
same,cell count,A2058,113%
same,cell count,A375,133%
"O=c1[nH]nc(Sc2ncc([N+](=O)[O-])s2)n1-c1ccc2c(c1)OCCO2 + NC(=O)c1ccc(N(C(N)=O)c2c(F)cccc2F)nc1-c1ccc(F)cc1F [VX702] (first compound 0.2 µM, partner dose 0.4 µM)",cell count,MZ2-MEL,101%
same,cell count,MeWo,94.8%
same,cell count,RPMI7951,94.3%
same,cell count,RVH-421,81%
same,cell count,SkMel28,86.3%
same,cell count,SkMel30,81.9%
same,cell count,UACC62,96.5%
same,cell count,WM115,98%
same,cell count,WM1716,114%
same,cell count,WM1745,87.2%
same,cell count,WM3526,80.5%
same,cell count,WM3619,125%
same,cell count,WM451Lu,89.4%
"O=C(O)c1ccc(-c2c[nH]c3ncc(-c4ccccc4)cc23)cc1C1CCCC1 + CC(C)CCN1c2nc(Nc3cc(F)c(O)c(F)c3)ncc2N(C)C(=O)C1C [BID1870] (first compound 0.8 µM, partner dose 1 µM)",cell count,501Mel,67.6%
same,cell count,A101D,70.3%
same,cell count,A2058,88.1%
same,cell count,A375,92.2%
"O=c1[nH]nc(Sc2ncc([N+](=O)[O-])s2)n1-c1ccc2c(c1)OCCO2 + CC(C)CCN1c2nc(Nc3cc(F)c(O)c(F)c3)ncc2N(C)C(=O)C1C [BID1870] (first compound 1 µM, partner dose 1 µM)",cell count,501Mel,64.9%
same,cell count,A101D,68%
same,cell count,A2058,88.1%
same,cell count,A375,77.8%
"COc1cc(Nc2ncc(F)c(Nc3ccc4c(n3)NC(=O)C(C)(C)O4)n2)cc(OC)c1OC [Tamatinib] + Cn1cc(/C=C2\C(=O)Nc3cccnc32)c2ccccc21 [GW441756] (first compound 2 µM, partner dose 2 µM)",cell count,501Mel,62.3%
same,cell count,A101D,40.5%
same,cell count,A2058,95.3%
same,cell count,A375,158%
"O=c1[nH]nc(Sc2ncc([N+](=O)[O-])s2)n1-c1ccc2c(c1)OCCO2 + CN(c1ncccc1CNc1nc(Nc2ccc3c(c2)CC(=O)N3)ncc1C(F)(F)F)S(C)(=O)=O [PF562271] (first compound 0.2 µM, partner dose 0.08 µM)",cell count,MZ2-MEL,83.1%
same,cell count,MeWo,110%
same,cell count,RPMI7951,87.5%
same,cell count,RVH-421,94.5%
same,cell count,SkMel28,71.4%
same,cell count,SkMel30,106%
same,cell count,UACC62,81%
same,cell count,WM115,83.1%
same,cell count,WM1716,93%
same,cell count,WM1745,87.6%
same,cell count,WM3526,103%
same,cell count,WM3619,87.8%
same,cell count,WM451Lu,85.9%
"O=c1[nH]nc(Sc2ncc([N+](=O)[O-])s2)n1-c1ccc2c(c1)OCCO2 + Nc1nc(F)nc2c1ncn2[C@@H]1O[C@H](CO)[C@@H](O)[C@@H]1O [fludarabine] (first compound 0.2 µM, partner dose 0.2 µM)",cell count,MeWo,41.2%
same,cell count,RPMI7951,101%
same,cell count,RVH-421,91.9%
same,cell count,SkMel28,72.5%
same,cell count,SkMel2,8.44%
same,cell count,SkMel30,21.9%
same,cell count,UACC62,72.3%
same,cell count,WM115,81%
same,cell count,WM1716,99.8%
same,cell count,WM1745,81.4%
same,cell count,WM3526,39.4%
same,cell count,WM3619,85.6%
same,cell count,WM451Lu,51.8%
"O=c1[nH]nc(Sc2ncc([N+](=O)[O-])s2)n1-c1ccc2c(c1)OCCO2 + C=CCn1c(=O)c2cnc(Nc3ccc(N4CCN(C)CC4)cc3)nc2n1-c1cccc(C(C)(C)O)n1 [MK1775] (first compound 0.2 µM, partner dose 0.02 µM)",cell count,MeWo,97.1%
same,cell count,RPMI7951,89%
same,cell count,RVH-421,87.4%
same,cell count,SkMel28,93.4%
same,cell count,SkMel30,87.9%
same,cell count,SkMel5,83.6%
same,cell count,UACC257,85.8%
same,cell count,UACC62,81.2%
same,cell count,WM115,93.7%
same,cell count,WM1716,90.5%
same,cell count,WM1745,87.6%
same,cell count,WM3526,99.4%
same,cell count,WM3619,95.4%
same,cell count,WM451Lu,106%
"Cn1cncc1[C@@](N)(c1ccc(Cl)cc1)c1ccc2c(c1)c(-c1cccc(Cl)c1)cc(=O)n2C [tipifarnib] + CCc1ccc(CCOc2ccc(CC3SC(=O)NC3=O)cc2)nc1 [pioglitazone] (first compound 0.01 µM, partner dose 2 µM)",cell count,MZ2-MEL,95.2%
same,cell count,MeWo,94.3%
same,cell count,RPMI7951,87.7%
same,cell count,RVH-421,89%
same,cell count,SkMel28,78.3%
same,cell count,SkMel30,104%
same,cell count,SkMel5,88.5%
same,cell count,UACC257,81.4%
same,cell count,UACC62,75.9%
same,cell count,WM115,81.2%
same,cell count,WM1716,87.2%
same,cell count,WM1745,88.7%
same,cell count,WM3526,104%
same,cell count,WM3619,93.8%
same,cell count,WM451Lu,86.6%
"Cn1cncc1[C@@](N)(c1ccc(Cl)cc1)c1ccc2c(c1)c(-c1cccc(Cl)c1)cc(=O)n2C [tipifarnib] + N#Cc1c(O)c2c(-c3ccc(-c4ccccc4O)cc3)csc2[nH]c1=O [A769662] (first compound 0.05 µM, partner dose 10 µM)",cell count,501Mel,79.5%
same,cell count,A101D,97%
same,cell count,A2058,88.5%
same,cell count,A375,132%
"O=c1[nH]nc(Sc2ncc([N+](=O)[O-])s2)n1-c1ccc2c(c1)OCCO2 + O=C(Nc1ccccc1)c1cc([N+](=O)[O-])ccc1Cl [GW9662] (first compound 1 µM, partner dose 10 µM)",cell count,501Mel,64.5%
same,cell count,A101D,62.7%
same,cell count,A2058,69.2%
same,cell count,A375,102%
"C[C@@H]1CCN(C(=O)CC#N)C[C@@H]1N(C)c1ncnc2[nH]ccc12 + Oc1cc(-c2nc(-c3ccccc3)[nH]c2-c2ccncc2)ccc1Cl [L779450] (first compound 5 µM, partner dose 1 µM)",cell count,501Mel,69.3%
same,cell count,A101D,65.9%
same,cell count,A2058,94.7%
same,cell count,A375,102%
"O=C(Nc1cccc(Cl)c1)Nc1ncc(CCNc2ncnc3ccsc23)s1 + CCN(CC)CCCCNc1ncc2cc(-c3cc(OC)cc(OC)c3)c(NC(=O)NC(C)(C)C)nc2n1 [PD173074] (first compound 0.0008 µM, partner dose 0.1 µM)",cell count,MZ2-MEL,99.1%
same,cell count,MeWo,103%
same,cell count,RPMI7951,83.9%
same,cell count,RVH-421,89.9%
same,cell count,SkMel28,93.9%
same,cell count,SkMel30,90.7%
same,cell count,SkMel5,114%
same,cell count,UACC257,91.7%
same,cell count,UACC62,104%
same,cell count,WM115,85.5%
same,cell count,WM1716,107%
same,cell count,WM1745,72.6%
same,cell count,WM3526,110%
same,cell count,WM3619,108%
same,cell count,WM451Lu,80.8%
